# Source: ChEMBL document CHEMBL1201862, “PubChem BioAssay data set” (2004)
#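 All cell lines were grown in 96-well plates and treated with compound for 48 hours. At the GI50, growth is halved.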 Activity calls are given as the source filed them. Rule as the data show it: active = GI50 up to about 1.1 µM and inactive = higher.
# How the values were obtained:
# Test in all cases: DTP human tumour cell line panel, 48 h
# KM12 = tested on: KM12
# SF-539 = tested on: SF-539
# NCI-H23 = tested on: NCI-H23
# OVCAR-4 = tested on: OVCAR-4
# OVCAR-5 = tested on: OVCAR-5
# HOP-92 = tested on: HOP-92
# SW-620 = tested on: SW-620
# SK-OV-3 = tested on: SK-OV-3
# MCF7 = tested on: MCF7
# SNB-75 = tested on: SNB-75
# MDA-MB-435 = tested on: MDA-MB-435
# HOP-62 = tested on: HOP-62
# RXF 393 = tested on: RXF 393
# IGROV-1 = tested on: IGROV-1
# SK-MEL-5 = tested on: SK-MEL-5
# TK-10 = tested on: TK-10
# NCI-H226 = tested on: NCI-H226
# Hs-578T = tested on: Hs-578T
# SK-MEL-28 = tested on: SK-MEL-28
# HL-60 = tested on: HL-60
# MOLT-4 = tested on: MOLT-4
# ACHN = tested on: ACHN
# K562 = tested on: K562
# BT-549 = tested on: BT-549
# SF-295 = tested on: SF-295
# PC-3 = tested on: PC-3
# RPMI-8226 = tested on: RPMI-8226
# SNB-19 = tested on: SNB-19
# UACC-257 = tested on: UACC-257
# A549 = tested on: A549
# NCI/ADR-RES = tested on: NCI/ADR-RES
# NCI-H460 = tested on: NCI-H460
# CCRF-CEM = tested on: CCRF-CEM
# U-251 = tested on: U-251
# UACC-62 = tested on: UACC-62
# M14 = tested on: M14
# HCT-15 = tested on: HCT-15
# SF-268 = tested on: SF-268
# SR = tested on: SR
# HT-29 = tested on: HT-29
# EKVX = tested on: EKVX
# SK-MEL-2 = tested on: SK-MEL-2
# OVCAR-8 = tested on: OVCAR-8
# UO-31 = tested on: UO-31
# OVCAR-3 = tested on: OVCAR-3
# HCC 2998 = tested on: HCC 2998
# NCI-H522 = tested on: NCI-H522
compound,measurement,setting,value
O=C(/C=C/c1ccccc1)Nc1ccccc1F [N-(2-FLUOROPHENYL)CINNAMAMIDE],GI50,KM12,inactive: 59.4 µM
same,GI50,SF-539,inactive: > 100 µM
same,GI50,NCI-H23,inactive: > 100 µM
same,GI50,OVCAR-4,inactive: 37.6 µM
same,GI50,OVCAR-5,inactive: > 100 µM
same,GI50,HOP-92,inactive: > 100 µM
same,GI50,SW-620,inactive: > 100 µM
same,GI50,SK-OV-3,inactive: > 100 µM
same,GI50,MCF7,inactive: 81.5 µM
same,GI50,SNB-75,inactive: > 100 µM
same,GI50,MDA-MB-435,inactive: > 100 µM
same,GI50,HOP-62,inactive: > 100 µM
same,GI50,RXF 393,inactive: > 100 µM
same,GI50,IGROV-1,inactive: > 100 µM
same,GI50,SK-MEL-5,inactive: 64 µM
same,GI50,TK-10,inactive: > 100 µM
same,GI50,NCI-H226,inactive: 88.1 µM
same,GI50,Hs-578T,inactive: > 100 µM
same,GI50,SK-MEL-28,inactive: > 100 µM
same,GI50,HL-60,inactive: 19.8 µM
same,GI50,MOLT-4,inactive: 15.2 µM
same,GI50,ACHN,inactive: > 100 µM
same,GI50,K562,inactive: 19.2 µM
same,GI50,BT-549,inactive: > 100 µM
same,GI50,SF-295,inactive: 74.1 µM
same,GI50,PC-3,inactive: 45.9 µM
same,GI50,RPMI-8226,inactive: 30.4 µM
same,GI50,SNB-19,inactive: 62.2 µM
same,GI50,UACC-257,inactive: > 100 µM
same,GI50,A549,inactive: > 100 µM
same,GI50,NCI/ADR-RES,inactive: 55.1 µM
same,GI50,NCI-H460,inactive: > 100 µM
same,GI50,CCRF-CEM,inactive: 49.5 µM
same,GI50,U-251,inactive: > 100 µM
same,GI50,UACC-62,inactive: 47.9 µM
same,GI50,M14,inactive: > 100 µM
same,GI50,HCT-15,80.2 µM
same,GI50,SF-268,inactive: > 100 µM
same,GI50,SR,inactive: 32.1 µM
same,GI50,HT-29,inactive: 46 µM
same,GI50,EKVX,inactive: > 100 µM
same,GI50,SK-MEL-2,inactive: > 100 µM
same,GI50,OVCAR-8,inactive: > 100 µM
same,GI50,UO-31,inactive: 68.4 µM
same,GI50,OVCAR-3,inactive: > 100 µM
same,GI50,HCC 2998,inactive: 97.1 µM
same,GI50,NCI-H522,inactive: 72.1 µM
